Data taken from ChEMBL document CHEMBL1961873, “Compounds: GSK PKIS; Assays: Nanosyn kinase panel” (2012).
For some of these results: Most of the strong results are listed elsewhere, so they are rarer here than in the full data. Only a part is listed here, and it is no random draw.

Key:
[1] = target: Fibroblast growth factor receptor 4 (Homo sapiens) (UniProt P22455); settings: at 1 µM;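 further: reported figure is the averaged percent inhibition of FGFR4, from the GSK PKIS kinase screening panel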
[2] = target: Tyrosine-protein kinase Fgr (Homo sapiens) (UniProt P09769); settings: at 0.1 µM
Chain of UniProt P09769 (P09769 whole entry, looked up): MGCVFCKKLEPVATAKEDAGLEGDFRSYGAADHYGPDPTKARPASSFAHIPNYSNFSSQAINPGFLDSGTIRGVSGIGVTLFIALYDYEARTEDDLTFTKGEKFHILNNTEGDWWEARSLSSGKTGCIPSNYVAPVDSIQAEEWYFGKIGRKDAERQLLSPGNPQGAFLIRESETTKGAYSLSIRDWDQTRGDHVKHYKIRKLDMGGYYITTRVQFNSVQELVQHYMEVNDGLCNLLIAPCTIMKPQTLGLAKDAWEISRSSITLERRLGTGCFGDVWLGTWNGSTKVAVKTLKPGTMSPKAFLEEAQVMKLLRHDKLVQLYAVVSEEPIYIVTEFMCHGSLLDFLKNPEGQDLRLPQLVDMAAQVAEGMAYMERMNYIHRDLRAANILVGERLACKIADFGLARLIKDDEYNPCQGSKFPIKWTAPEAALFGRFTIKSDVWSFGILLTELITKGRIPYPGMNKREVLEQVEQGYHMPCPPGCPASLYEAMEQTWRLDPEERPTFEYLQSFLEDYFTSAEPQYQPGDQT

[3] = target: Tyrosine-protein kinase Fgr (Homo sapiens) (UniProt P09769); settings: at 1 µM
[4] = target: Vascular endothelial growth factor receptor 1 (Homo sapiens) (UniProt P17948); settings: at 0.1 µM
Chain of UniProt P17948 (P17948 whole entry): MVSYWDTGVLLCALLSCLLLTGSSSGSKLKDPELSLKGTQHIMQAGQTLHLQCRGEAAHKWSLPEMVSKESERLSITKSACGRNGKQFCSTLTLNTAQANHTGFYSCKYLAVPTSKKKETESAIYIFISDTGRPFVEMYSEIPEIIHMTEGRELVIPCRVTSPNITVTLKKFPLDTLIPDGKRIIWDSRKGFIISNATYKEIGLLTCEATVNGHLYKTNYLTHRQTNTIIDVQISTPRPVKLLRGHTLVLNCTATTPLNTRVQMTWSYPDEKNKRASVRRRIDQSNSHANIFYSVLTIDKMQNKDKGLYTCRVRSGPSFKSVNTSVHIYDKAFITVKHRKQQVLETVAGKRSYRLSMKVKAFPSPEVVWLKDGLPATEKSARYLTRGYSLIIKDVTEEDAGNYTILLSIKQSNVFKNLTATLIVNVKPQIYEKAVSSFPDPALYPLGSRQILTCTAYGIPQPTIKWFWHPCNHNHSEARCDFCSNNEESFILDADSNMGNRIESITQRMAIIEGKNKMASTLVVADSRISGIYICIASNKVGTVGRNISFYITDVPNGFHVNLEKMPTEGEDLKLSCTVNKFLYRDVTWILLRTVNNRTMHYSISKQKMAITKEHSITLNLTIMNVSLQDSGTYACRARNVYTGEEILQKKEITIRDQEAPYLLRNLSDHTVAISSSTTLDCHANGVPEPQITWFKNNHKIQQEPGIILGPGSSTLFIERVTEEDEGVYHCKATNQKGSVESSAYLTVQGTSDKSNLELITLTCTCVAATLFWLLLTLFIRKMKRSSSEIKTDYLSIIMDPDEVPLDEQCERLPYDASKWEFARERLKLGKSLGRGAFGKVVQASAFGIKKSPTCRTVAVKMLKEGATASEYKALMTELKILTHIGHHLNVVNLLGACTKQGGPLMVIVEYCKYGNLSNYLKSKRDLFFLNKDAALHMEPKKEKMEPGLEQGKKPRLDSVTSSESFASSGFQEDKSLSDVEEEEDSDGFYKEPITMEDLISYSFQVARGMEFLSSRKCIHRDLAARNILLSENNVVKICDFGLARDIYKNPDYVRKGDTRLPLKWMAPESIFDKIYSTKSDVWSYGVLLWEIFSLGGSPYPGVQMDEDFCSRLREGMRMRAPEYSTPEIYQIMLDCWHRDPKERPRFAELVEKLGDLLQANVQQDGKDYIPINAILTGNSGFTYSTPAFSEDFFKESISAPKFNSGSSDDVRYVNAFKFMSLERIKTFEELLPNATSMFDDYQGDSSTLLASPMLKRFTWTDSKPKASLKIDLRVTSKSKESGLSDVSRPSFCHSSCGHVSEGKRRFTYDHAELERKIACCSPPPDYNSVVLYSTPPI

[5] = target: Vascular endothelial growth factor receptor 1 (Homo sapiens) (UniProt P17948); settings: at 1 µM
[6] = target: Receptor-type tyrosine-protein kinase FLT3 (Homo sapiens) (UniProt P36888); settings: at 0.1 µM
[7] = target: Receptor-type tyrosine-protein kinase FLT3 (Homo sapiens) (UniProt P36888); settings: at 1 µM
[8] = tested on: T1, Receptor-type tyrosine-protein kinase FLT3 (Homo sapiens), P36888 [D835Y]; settings: at 0.1 µM
T1 sequence (whole entry): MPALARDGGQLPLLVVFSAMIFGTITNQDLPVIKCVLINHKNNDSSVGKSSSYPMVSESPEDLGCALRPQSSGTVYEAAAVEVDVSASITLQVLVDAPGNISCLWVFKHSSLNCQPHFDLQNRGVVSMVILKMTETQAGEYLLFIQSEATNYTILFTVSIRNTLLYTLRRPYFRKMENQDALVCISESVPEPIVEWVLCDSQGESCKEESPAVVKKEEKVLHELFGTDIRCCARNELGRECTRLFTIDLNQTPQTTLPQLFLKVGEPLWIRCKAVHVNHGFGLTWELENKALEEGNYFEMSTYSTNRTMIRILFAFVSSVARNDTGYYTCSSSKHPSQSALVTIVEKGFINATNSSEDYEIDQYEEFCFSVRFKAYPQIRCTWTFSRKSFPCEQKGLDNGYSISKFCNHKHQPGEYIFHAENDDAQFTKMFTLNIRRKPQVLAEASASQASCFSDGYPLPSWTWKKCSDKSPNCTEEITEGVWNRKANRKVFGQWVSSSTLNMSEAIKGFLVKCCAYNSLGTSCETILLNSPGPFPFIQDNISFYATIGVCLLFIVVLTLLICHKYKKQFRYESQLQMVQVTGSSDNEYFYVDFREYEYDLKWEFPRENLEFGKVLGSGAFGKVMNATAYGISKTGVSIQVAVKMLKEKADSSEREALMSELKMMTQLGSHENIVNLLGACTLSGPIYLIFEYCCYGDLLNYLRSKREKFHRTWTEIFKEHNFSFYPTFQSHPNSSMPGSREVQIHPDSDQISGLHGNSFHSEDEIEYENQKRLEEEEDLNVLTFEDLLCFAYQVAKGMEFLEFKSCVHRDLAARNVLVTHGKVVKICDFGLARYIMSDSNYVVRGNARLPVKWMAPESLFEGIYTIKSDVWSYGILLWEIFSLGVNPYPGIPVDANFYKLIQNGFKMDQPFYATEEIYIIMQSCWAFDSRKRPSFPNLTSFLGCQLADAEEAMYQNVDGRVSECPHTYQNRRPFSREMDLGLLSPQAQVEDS

[9] = target: Non-receptor tyrosine-protein kinase TYK2 (Homo sapiens) (UniProt P29597); settings: at 1 µM;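 further: values are mean percent inhibition of TYK2 kinase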
Chain of UniProt P29597 (P29597 whole entry): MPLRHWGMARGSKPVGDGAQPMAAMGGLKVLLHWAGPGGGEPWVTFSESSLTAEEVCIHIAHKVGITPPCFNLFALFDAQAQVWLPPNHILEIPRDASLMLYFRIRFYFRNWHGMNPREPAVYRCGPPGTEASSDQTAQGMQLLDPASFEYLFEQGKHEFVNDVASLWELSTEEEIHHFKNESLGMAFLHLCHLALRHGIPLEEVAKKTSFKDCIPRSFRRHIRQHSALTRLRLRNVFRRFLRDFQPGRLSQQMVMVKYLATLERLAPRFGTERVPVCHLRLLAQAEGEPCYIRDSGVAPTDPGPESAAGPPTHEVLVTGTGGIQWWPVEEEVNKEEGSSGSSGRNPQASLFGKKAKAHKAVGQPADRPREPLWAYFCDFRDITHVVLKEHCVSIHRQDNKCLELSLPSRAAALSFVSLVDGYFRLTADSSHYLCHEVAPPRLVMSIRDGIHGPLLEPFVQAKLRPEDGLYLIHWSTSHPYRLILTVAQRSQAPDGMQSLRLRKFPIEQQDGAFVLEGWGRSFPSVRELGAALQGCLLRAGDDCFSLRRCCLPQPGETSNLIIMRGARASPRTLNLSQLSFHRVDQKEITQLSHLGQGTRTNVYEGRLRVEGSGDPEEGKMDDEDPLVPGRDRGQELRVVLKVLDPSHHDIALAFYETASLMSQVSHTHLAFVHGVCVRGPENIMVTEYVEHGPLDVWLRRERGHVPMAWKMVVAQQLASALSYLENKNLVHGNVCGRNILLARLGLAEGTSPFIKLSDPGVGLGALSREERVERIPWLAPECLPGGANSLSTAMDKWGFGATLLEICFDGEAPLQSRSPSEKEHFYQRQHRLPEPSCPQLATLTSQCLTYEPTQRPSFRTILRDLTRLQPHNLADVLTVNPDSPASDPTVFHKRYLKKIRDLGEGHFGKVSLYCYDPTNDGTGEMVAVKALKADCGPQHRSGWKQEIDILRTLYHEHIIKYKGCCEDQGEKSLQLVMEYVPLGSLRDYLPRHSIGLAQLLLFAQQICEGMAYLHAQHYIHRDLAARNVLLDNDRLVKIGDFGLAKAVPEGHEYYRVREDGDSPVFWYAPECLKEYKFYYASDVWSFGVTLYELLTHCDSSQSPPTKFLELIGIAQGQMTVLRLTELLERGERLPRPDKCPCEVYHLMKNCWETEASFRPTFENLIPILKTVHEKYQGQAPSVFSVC

[10] = target: T2, Tyrosine-protein kinase receptor TYRO3 (Homo sapiens) (UniProt Q06418); settings: at 0.1 µM
T2 sequence (whole entry): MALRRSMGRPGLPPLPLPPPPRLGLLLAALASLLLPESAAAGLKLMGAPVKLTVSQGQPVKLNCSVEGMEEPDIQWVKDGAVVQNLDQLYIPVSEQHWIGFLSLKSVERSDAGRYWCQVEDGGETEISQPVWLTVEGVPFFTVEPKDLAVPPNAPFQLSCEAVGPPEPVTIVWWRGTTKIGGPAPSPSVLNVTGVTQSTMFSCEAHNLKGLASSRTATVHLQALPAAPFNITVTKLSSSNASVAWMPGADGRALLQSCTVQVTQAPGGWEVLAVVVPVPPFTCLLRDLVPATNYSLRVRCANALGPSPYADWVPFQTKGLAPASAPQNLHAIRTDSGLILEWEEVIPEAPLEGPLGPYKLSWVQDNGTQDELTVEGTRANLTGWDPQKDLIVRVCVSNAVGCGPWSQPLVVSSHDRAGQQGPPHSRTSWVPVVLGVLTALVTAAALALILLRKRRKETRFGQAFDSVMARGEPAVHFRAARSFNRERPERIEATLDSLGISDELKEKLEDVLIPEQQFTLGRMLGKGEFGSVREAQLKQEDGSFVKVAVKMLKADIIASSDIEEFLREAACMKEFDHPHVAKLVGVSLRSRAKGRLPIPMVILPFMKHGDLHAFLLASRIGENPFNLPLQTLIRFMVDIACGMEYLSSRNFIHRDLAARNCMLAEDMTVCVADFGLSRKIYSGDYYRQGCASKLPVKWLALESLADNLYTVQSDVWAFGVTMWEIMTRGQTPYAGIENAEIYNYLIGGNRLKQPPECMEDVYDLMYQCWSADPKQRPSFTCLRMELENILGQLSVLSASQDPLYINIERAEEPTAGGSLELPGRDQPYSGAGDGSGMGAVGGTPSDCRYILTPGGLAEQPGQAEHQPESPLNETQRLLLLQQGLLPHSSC

[11] = target: T2, Tyrosine-protein kinase receptor TYRO3 (Homo sapiens); settings: at 1 µM
[12] = target: Tyrosine-protein kinase Yes (Homo sapiens) (UniProt P07947); settings: at 0.1 µM
Chain of UniProt P07947 (P07947 whole entry, looked up): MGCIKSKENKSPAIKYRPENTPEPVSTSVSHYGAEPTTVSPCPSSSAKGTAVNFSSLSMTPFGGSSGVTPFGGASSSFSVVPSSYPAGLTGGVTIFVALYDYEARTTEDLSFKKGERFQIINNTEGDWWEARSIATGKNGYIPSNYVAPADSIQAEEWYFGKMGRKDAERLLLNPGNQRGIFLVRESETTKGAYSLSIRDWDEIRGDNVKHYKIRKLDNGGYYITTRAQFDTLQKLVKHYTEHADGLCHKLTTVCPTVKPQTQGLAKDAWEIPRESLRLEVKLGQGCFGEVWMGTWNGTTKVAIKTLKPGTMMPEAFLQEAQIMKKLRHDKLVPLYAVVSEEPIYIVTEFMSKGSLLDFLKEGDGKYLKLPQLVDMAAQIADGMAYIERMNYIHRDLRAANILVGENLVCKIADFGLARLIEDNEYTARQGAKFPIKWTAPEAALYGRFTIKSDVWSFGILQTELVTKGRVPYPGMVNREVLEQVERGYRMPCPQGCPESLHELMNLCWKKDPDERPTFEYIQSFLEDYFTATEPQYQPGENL

[13] = target: Tyrosine-protein kinase Yes (Homo sapiens) (UniProt P07947); settings: at 1 µM
[14] = target: T3, Tyrosine-protein kinase ZAP-70 (Homo sapiens) (UniProt P43403); settings: at 0.1 µM
T3 sequence (whole entry): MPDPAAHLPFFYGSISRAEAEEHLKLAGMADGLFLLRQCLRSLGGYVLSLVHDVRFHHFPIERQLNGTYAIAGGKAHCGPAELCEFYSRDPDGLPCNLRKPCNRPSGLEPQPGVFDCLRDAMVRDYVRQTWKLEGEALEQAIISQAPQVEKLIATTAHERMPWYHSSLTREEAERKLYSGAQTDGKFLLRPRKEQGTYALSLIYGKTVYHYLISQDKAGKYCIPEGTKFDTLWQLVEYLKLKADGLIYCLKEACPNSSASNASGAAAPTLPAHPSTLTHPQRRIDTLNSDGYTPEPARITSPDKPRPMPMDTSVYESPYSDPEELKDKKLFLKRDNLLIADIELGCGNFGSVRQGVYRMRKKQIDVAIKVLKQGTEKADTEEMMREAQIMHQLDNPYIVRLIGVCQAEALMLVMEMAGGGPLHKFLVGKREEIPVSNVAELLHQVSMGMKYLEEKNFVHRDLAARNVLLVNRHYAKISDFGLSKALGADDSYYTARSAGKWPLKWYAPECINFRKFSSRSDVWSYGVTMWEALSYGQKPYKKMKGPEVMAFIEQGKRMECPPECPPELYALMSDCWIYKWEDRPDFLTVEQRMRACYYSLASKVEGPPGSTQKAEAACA

[15] = target: T3, Tyrosine-protein kinase ZAP-70 (Homo sapiens); settings: at 1 µM
[16] = target: Serine/threonine-protein kinase B-raf (Homo sapiens) (UniProt P15056); settings: at 0.1 µM
Chain of UniProt P15056 (P15056 whole entry): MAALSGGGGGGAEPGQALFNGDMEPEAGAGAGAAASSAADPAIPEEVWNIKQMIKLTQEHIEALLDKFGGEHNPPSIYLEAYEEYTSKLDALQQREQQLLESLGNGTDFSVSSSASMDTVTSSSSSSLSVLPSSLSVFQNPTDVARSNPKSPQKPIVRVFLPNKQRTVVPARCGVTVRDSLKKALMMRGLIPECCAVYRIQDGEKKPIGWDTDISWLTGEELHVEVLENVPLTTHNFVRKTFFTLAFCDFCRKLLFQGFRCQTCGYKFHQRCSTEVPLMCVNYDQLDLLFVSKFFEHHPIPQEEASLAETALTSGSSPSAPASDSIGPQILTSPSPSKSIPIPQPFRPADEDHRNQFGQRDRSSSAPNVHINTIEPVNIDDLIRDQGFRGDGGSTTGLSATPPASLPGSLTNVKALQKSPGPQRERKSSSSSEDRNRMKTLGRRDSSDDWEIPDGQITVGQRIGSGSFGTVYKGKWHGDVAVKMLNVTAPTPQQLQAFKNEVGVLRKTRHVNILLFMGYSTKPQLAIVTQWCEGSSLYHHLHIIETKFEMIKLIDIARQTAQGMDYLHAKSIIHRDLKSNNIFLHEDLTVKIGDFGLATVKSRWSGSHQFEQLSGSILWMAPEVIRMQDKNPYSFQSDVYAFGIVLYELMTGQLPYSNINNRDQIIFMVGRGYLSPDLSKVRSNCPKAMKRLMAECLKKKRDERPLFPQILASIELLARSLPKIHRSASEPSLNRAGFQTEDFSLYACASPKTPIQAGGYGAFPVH

[17] = target: Serine/threonine-protein kinase B-raf (Homo sapiens) (UniProt P15056); settings: at 1 µM
[18] = tested on: Serine/threonine-protein kinase B-raf (Homo sapiens), P15056 [V600E]; settings: at 0.1 µM
[19] = tested on: Serine/threonine-protein kinase B-raf (Homo sapiens), P15056 [V600E]; settings: at 1 µM
[20] = target: RAF proto-oncogene serine/threonine-protein kinase (Homo sapiens) (UniProt P04049); settings: at 0.1 µM;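 further: values are mean CRAF kinase inhibition from profiling of the GSK Published Kinase Inhibitor Set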
Chain of UniProt P04049 (P04049 whole entry): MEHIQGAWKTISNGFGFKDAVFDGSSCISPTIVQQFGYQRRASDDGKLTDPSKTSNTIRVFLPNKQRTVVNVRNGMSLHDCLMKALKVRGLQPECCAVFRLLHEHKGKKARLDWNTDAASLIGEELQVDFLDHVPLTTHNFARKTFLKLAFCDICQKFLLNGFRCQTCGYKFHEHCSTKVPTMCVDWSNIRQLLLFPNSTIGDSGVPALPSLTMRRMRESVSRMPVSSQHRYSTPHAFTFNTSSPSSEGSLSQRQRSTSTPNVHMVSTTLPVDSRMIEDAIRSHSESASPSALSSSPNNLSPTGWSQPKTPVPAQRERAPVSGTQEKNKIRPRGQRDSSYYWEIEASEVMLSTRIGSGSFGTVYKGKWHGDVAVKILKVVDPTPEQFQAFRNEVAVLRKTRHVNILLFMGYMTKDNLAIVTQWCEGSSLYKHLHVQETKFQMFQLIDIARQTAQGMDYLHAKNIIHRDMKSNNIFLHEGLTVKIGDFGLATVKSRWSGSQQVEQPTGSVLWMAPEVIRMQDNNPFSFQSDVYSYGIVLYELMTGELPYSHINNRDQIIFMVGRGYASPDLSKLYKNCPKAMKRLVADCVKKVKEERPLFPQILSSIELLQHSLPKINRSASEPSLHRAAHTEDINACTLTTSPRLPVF

| SMILES | inhibition [1] [%] | inhibition [2] [%] | inhibition [3] [%] | inhibition [4] [%] | inhibition [5] [%] | inhibition [6] [%] | inhibition [7] [%] | inhibition [8] [%] | inhibition [9] [%] | inhibition [10] [%] | inhibition [11] [%] | inhibition [12] [%] | inhibition [13] [%] | inhibition [14] [%] | inhibition [15] [%] | inhibition [16] [%] | inhibition [17] [%] | inhibition [18] [%] | inhibition [19] [%] | inhibition [20] [%] |
| --- | --- | --- | --- | --- | --- | --- | --- | --- | --- | --- | --- | --- | --- | --- | --- | --- | --- | --- | --- | --- |
| O=C1NC(=O)C(c2ccccc2)=C1Nc1ccccc1 | 4.63 | 7.27 | 10.7 | 3.69 | 3.39 | 4.03 | 4.12 | 2.24 | -3.23 | 2.82 | 4.48 | 2.03 | 2.59 | 3.89 | 1.91 | 8.15 | 6.69 | 7.6 | 5.97 | 2.66 |
| Fc1ccc(-c2ncn(C3CCNCC3)c2-c2ccnc(Oc3cccc(C(F)(F)F)c3)n2)cc1 | 1.92 | 4.09 | 6.39 | 1.55 | 1.06 | 8.04 | 5.18 | -5.75 | -2.19 | 2.35 | 0.95 | 3.59 | 3.28 | 2.51 | 2.23 | 8.2 | 9.1 | 6.64 | 6.1 | 2.4 |
| Fc1ccc(Oc2nccc(-c3c(-c4ccc(F)cc4)ncn3C3CCNCC3)n2)cc1 | -1.62 | 0.72 | 1.58 | 1.21 | 4.59 | -0.13 | 3.38 | 2.81 | -5.03 | 2.16 | -1 | -0.25 | -1.14 | -4.64 | -2.87 | 5.3 | 9.11 | 2.96 | 4.26 | 1.46 |
| Cc1cccc(Oc2nccc(-c3c(-c4ccc(F)cc4)ncn3C3CCNCC3)n2)c1C | -0.15 | 1.96 | 4.8 | -0.2 | 2.15 | 4.11 | 1.45 | -5.43 | -3.24 | 2.09 | 2.21 | 2.26 | 4.79 | -3.83 | -2.95 | 6.21 | 6.08 | 4.06 | 4.68 | -1.24 |
| O=C(O)c1ccc(Oc2nccc(-c3c(-c4ccc(F)cc4)ncn3C3CCNCC3)n2)cc1 | 2.15 | 0.55 | 0.29 | 1.41 | 1.14 | 5.63 | 4.03 | -3.29 | -3.71 | 0.73 | 2.64 | 0.62 | -0.06 | 1.32 | 2.99 | – | 10.5 | 4.46 | 5.65 | 1.06 |
| CC(C)(C)c1ccc(Oc2nccc(-c3c(-c4ccc(F)cc4)ncn3C3CCNCC3)n2)cc1 | 1.86 | 2.61 | 9.73 | 0.36 | 2.47 | 1.73 | 2.96 | -6.25 | -2.22 | 1.85 | 3.16 | 3.05 | 5.48 | -3.59 | – | 6.06 | 14.9 | 4.63 | 12.3 | 2.31 |
| O=C1NC(=O)C(c2ccccc2Cl)=C1Nc1cc(Cl)c(O)c(Cl)c1 | 0.81 | 1.95 | 3.43 | 1.02 | 3.88 | 2.92 | 5.05 | 6.78 | -5.94 | 3.71 | 4.71 | -0.8 | 1.62 | 2.32 | 0.91 | 2.93 | 5.8 | 3.25 | 5.02 | 1.49 |
| NC(=O)CCc1ccccc1Oc1nccc(-c2c(-c3ccc(F)cc3)ncn2C2CCNCC2)n1 | -0.84 | -0.91 | -0.62 | -1.33 | -1.04 | 0.65 | -1.61 | -1.18 | 1.93 | -0.96 | -1.13 | -0.77 | -2.72 | -2.46 | 0.47 | -2.7 | -2.67 | 5.18 | -0.7 | -3.04 |
| O=C1NC(=O)C(c2cccc([N+](=O)[O-])c2)=C1Nc1cc(Cl)c(O)c(Cl)c1 | 0.22 | 2.75 | 3.7 | -2.65 | 1.09 | 4.15 | 3.35 | 0.48 | 2.74 | -0.41 | 1.3 | 0.98 | 3.65 | -2.36 | 0.91 | 2.35 | 3.75 | 3.01 | 3.31 | 16.3 |
| COc1ccccc1Oc1nccc(-c2c(-c3ccc(F)cc3)ncn2C2CCNCC2)n1 | -0.23 | 3.48 | 4.97 | -1.57 | 2.13 | 0.78 | 4.04 | -2.64 | -3.01 | 1.76 | 3.44 | 1.67 | 6.4 | -1.27 | -0.28 | 6.64 | 8.02 | 4.66 | 4.03 | -2.51 |
| COc1ccccc1C1=C(Nc2ccccc2)C(=O)NC1=O | 2.28 | 4.72 | 8.83 | 1.88 | 3.09 | 2.12 | 2.33 | 2.17 | -1.53 | 2.44 | 3.3 | 4.77 | 20.3 | 0.26 | 1.94 | 4.84 | 4.42 | 4.33 | 5.18 | 2.57 |
| Fc1ccc(-c2ncn(C3CCNCC3)c2-c2ccnc(Oc3ccc(Cl)cc3)n2)cc1 | -1.06 | 2.09 | 2.83 | -2.5 | -2.3 | -0.48 | 8.91 | 1.24 | -2.89 | -0.38 | 1.63 | -0.03 | 0.1 | -0.15 | -2.6 | 1.9 | 2.82 | 1.07 | 1.93 | -1.81 |
| CS(=O)(=O)c1ccc(Oc2nccc(-c3c(-c4ccc(F)cc4)ncn3C3CCNCC3)n2)cc1 | 3.97 | 1.66 | 2.81 | -0.67 | 0.64 | -0.64 | 2.81 | -1.9 | -1.72 | 2.73 | 3.49 | 1.1 | 4.12 | 0.61 | 1.29 | 6.14 | 5.95 | 4.98 | 3.13 | 1.89 |
| Fc1ccc(-c2ncn(C3CCNCC3)c2-c2ccnc(Oc3cccc(F)c3)n2)cc1 | 3.05 | 7.37 | 12.1 | 1.26 | 0.92 | 3.44 | 5.14 | 4.09 | -2.32 | 1.36 | 3.14 | 3.48 | 6.72 | 1.01 | 1.77 | – | 9.91 | 3.08 | 5.43 | 3.39 |
